The campaign covered roughly 270,000 compounds. About 5,800 (2.1%) were called active. Inconclusive means that the source gave no clear call. Such entries were picked first, then a sample of the others. The call rests on the fitted dose curve; in most records, active means well fitted inhibition curve with a large enough effect; inconclusive means small, poorly fitted or top-dose-only effect; inactive means flat fitted curve, though single readings scatter. Potencies beside an inconclusive call are fits to weak or partial responses and may not hold up.
Molecular target: Microtubule-associated protein tau (Homo sapiens) (UniProt P10636)
UniProt P10636, sequence (P10636 whole entry, looked up): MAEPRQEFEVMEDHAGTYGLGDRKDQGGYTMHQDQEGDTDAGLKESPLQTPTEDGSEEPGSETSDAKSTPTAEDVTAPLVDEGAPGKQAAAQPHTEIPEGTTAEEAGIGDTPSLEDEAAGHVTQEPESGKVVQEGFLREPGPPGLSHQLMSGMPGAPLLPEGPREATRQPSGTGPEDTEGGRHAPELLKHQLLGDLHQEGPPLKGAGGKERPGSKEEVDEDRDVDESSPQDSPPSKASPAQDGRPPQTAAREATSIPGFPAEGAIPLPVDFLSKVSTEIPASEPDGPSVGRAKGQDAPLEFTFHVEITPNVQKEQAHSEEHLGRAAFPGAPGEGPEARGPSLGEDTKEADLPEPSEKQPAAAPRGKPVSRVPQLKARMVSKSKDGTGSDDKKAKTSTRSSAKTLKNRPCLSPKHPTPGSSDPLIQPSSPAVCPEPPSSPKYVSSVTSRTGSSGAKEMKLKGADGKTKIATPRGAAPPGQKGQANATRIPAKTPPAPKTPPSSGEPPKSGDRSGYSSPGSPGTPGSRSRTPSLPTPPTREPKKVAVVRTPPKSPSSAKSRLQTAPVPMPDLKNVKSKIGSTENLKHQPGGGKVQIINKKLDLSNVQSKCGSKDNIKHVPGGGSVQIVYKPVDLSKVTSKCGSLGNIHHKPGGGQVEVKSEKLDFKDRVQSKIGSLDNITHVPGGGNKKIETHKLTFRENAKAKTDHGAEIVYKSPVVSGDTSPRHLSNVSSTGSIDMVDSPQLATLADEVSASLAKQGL
Assay: qHTS for Inhibitors of Tau Fibril Formation, Thioflavin T Binding; further: nearly all actives have a fitted effect of over 55% in size
Details: recombinant tau K18 P301L (four-repeat tau fragment), heparin-induced fibrillization, ThT fluorescence; series mostly up to 57.4 µM
In short: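 Recombinant human tau K18 fragment […] carrying P301L, 15 uM unlabeled plus 0.24 uM Alexa 594-labeled, was fibrillized with 20 uM heparin in 100 mM sodium acetate pH 7 for 6 hr at 37 C; 30 uM ThT fluorescence read after 1 hr.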
On the % scale 0 is the no-effect control and ±100 the full control effect; potency means the concentration at half of the fitted maximal effect; tags describe the fitted curve by direction and shape.

Row | SMILES | Potency | activity, negative = inhibition
1 | Cc1ccc(CNC(=O)CCS(=O)(=O)c2cc3c(cc2Cl)NC(=O)CO3)cc1 | inconclusive: 17.8 µM [inhibitor, partial curve, poor fit] | –
2 | CCOC(=O)c1[nH]c(C)c(/C(O)=C2\C(=O)C(=O)N(CCN(C)C)C2c2ccc(C)o2)c1C (centres undefined) | inconclusive: 22.4 µM [inhibitor, partial curve] | –
3 | O=C(NC(=S)Nc1ccc(S(=O)(=O)Nc2nccs2)cc1)c1ccccc1 | inactive | –
4 | COC(=O)C1=NN(C(=O)c2cccc(Br)c2)C(O)(c2ccc(Cl)cc2)C1 (centres undefined) | inconclusive: 20 µM [inhibitor, partial curve] | –
5 | COC(=O)CNC(=O)c1cc(-c2ccncc2)nc2c(C)c(Cl)ccc12 | inactive | –
6 | Cc1ccc(C)c(N2CCN(C(=O)Cc3cn(C)c4ccccc34)CC2)c1 | inconclusive: 28.2 µM [inhibitor, partial curve] | –
7 | COc1cccc(OC)c1C(=O)NC(=S)Nc1ccc2oc(-c3ccncc3)nc2c1 | inconclusive: 12.6 µM [inhibitor, partial curve, poor fit] | –
8 | Cc1cc(C)c2ccc(N)nc2c1O | inactive | –
9 | CCc1cccc(N=c2c([N+](=O)[O-])nn(-c3ccc4c(c3)OCCO4)n2O)c1 | inconclusive: 12.6 µM [inhibitor, partial curve] | –
10 | Cc1cc(Cl)c(OCCN2C(=O)NC(C)(C)C2=O)c(Br)c1 | inactive | –
11 | O=C(N/N=C/c1cccc([N+](=O)[O-])c1)c1cc(-c2ccc3c4c(cccc24)CC3)n[nH]1 | inconclusive: 1.78 µM [inhibitor, full curve] | –
12 | COc1ccc(NC(=O)CSc2nnc(CNc3ccc(F)cc3)o2)c(OC)c1 | inconclusive: 15.8 µM [inhibitor, partial curve] | –
13 | Cc1cc2cc(CN(Cc3ccc4c(c3)OCO4)C(=O)c3ccco3)c(=O)[nH]c2cc1C | inconclusive: 0.0251 µM [inhibitor, full curve, poor fit] | –
14 | CCCN(CCC)c1nc(NC2CCN(C(=O)OCC)CC2)nc(OC)n1 | inconclusive: 35.5 µM [inhibitor, partial curve, poor fit] | –
15 | CCC(C)Sc1nc2c(c(=O)[nH]c(=O)n2C)n1CC(O)COc1cccc2ccccc12 (centres undefined) | inconclusive: 25.1 µM [inhibitor, single point] | –
16 | O=C(NCCN1CCCC1)c1ccc2c(=O)n(CCc3ccccc3)c(=O)[nH]c2c1 | inconclusive: 10 µM [inhibitor, partial curve] | –
17 | COc1cccc(NC(=O)CSc2cc(C)[nH]c(=O)n2)c1 | inactive | –
18 | COc1ccc(/C=N/Nc2nccnc2Cl)cc1 | inconclusive: 28.2 µM [inhibitor, partial curve, poor fit] | –
19 | COc1cc(N=c2oc3c(C)ncc(CO)c3cc2C(N)=O)cc(OC)c1OC | inconclusive: 14.1 µM [inhibitor, partial curve] | –
20 | CCc1cc(=O)n2c([nH]c3ccccc32)c1C#N | inconclusive: 7.08 µM [inhibitor, partial curve] | –
21 | COc1ccc(CCn2c(C)cc(C(=O)CSc3nnnn3-c3ccccc3)c2C)cc1OC | inconclusive: 31.6 µM [inhibitor, single point] | –
22 | COc1ccc(C)cc1-n1nnnc1SCC(=O)Nc1cc(C)on1 | inactive | –
23 | C/C(=N\NC(=O)CO/N=C(\C)c1cccs1)c1ccc(N)cc1 | inconclusive: 39.8 µM [inhibitor, partial curve] | –

Row | SMILES | Potency | activity, negative = inhibition
24 | Cc1cc([N+](=O)[O-])c2c(c1C)C1C=CCC1C(c1ccccn1)N2 (centres undefined) | active: 15.8 µM | –
25 | CCc1ccc(S(=O)(=O)ON2C(=O)c3ccccc3C2=O)cc1 | active: 15.8 µM | –
26 | O=C(Nc1ccc(Br)cc1F)c1ccc2nc(CCc3ccccc3)oc2c1 | inconclusive: 0.251 µM [inhibitor, full curve] | –
27 | O=C(NCc1cccs1)C(=O)NCC1OCCCN1S(=O)(=O)c1cccs1 (centres undefined) | inactive | –
28 | CCOC(=O)c1ccc(NC(=O)c2cccc3c(=O)c4c([nH]c23)CCCC4)cc1 | inactive | –
29 | CCc1ccccc1NC(=O)Cn1c(C(=O)OC)cc2oc(C)cc21 | inconclusive: 0.0224 µM [activator, full curve, poor fit] | –
30 | NNc1nc2c(Cl)ccc(Cl)c2s1 | active: 11.2 µM | –
31 | N#CCC(=O)N/N=C/c1cc([N+](=O)[O-])ccc1N1CCOCC1 | inconclusive: 7.94 µM [inhibitor, full curve] | –
32 | Cc1cc(C(=O)NN)c2cc(Br)ccc2n1 | inactive | –
33 | COc1ccc(NC(=O)Cn2ccn(Cc3ccccc3)c(=O)c2=O)cc1Cl | inconclusive: 44.7 µM [inhibitor, single point] | –
34 | CCOC(=O)c1sc2nc(N3CCOCC3)c3c(c2c1N)CCCC3 | inactive | –
35 | CN1CC=C2C(C#N)=C(N)C(C#N)(C#N)[C@H](c3cccs3)[C@H]2C1 | inconclusive: 31.6 µM [inhibitor, single point] | –
36 | O=C1c2oc3ccccc3c(=O)c2C(c2ccccc2F)N1Cc1ccc2c(c1)OCO2 (centres undefined) | inactive | –
37 | CCN(CC)c1nc(Oc2ccc(C(=O)OC)cc2)nc(N2CCOCC2)n1 | inconclusive: 35.5 µM [inhibitor, single point] | –
38 | CC12C=C(/C=C/c3ccc(F)cc3)C(C)(C1)C(c1ccc(F)cc1)CC2=O (centres undefined) | – | inactive: -15.5% [at 11.5 µM]
39 | Cc1ccccc1OCC(=O)NCC(c1ccc(Cl)cc1)N1CCOCC1 (centres undefined) | inactive | –
40 | COc1cccc(C(=O)COc2cccc(NC(=O)c3cccc([N+](=O)[O-])c3)c2)c1 | inconclusive: 11.2 µM [inhibitor, partial curve] | –
41 | Cc1ccc(CSCCNC(=O)CSCc2ccc([N+](=O)[O-])cc2)cc1 | inconclusive: 50.1 µM [inhibitor, partial curve, poor fit] | –
42 | Cc1cccc2c1-c1sc(C(=O)Nc3ccccc3C(N)=O)cc1CO2 | inconclusive: 1.26 µM [inhibitor, partial curve] | –
43 | CCC(=O)Nc1cc(-c2nc3cc(C)cc(C)c3o2)ccc1C | inconclusive: 12.6 µM [inhibitor, partial curve] | –
44 | O=C(CN1CCN(c2ccccc2O)CC1)Nc1cc([N+](=O)[O-])ccc1Cl | inconclusive: 20 µM [inhibitor, single point] | –
45 | Cc1cc(N/N=C/c2ccc([N+](=O)[O-])o2)nc2ccccc12 | active: 1.58 µM | –
46 | Cc1scc(-c2n[nH]c(=S)n2C(C)c2ccccc2)c1C (centres undefined) | inactive | –

Row | SMILES | Potency | activity, negative = inhibition
47 | COc1cc(/C=N/Nc2ccc(Cl)c(C(=O)O)c2)ccc1OC(=O)c1cccs1 | inconclusive: 14.1 µM [inhibitor, partial curve] | –
48 | CC(=O)Nc1scc(-c2ccccc2)[n+]1-c1ccc(C)cc1 | inactive | –
49 | COc1ccc(C(=O)NN/C(=N/S(=O)(=O)c2ccc(C)cc2)c2ccccc2)cc1 | inconclusive: 44.7 µM [inhibitor, partial curve, poor fit] | –
50 | Cn1nnnc1SCC(=O)Nc1nc(-c2ccccc2)c(-c2ccccc2)o1 | inactive | –
51 | Nc1ccc(N(CCO)CCO)cc1 | active: 11.2 µM | –
52 | Cc1ccc(C(=O)N/N=C/c2cccc(OC(=O)/C=C/c3ccco3)c2)cn1 | inconclusive: 28.2 µM [inhibitor, single point] | –
53 | COc1ccc2[nH]c3c(=O)n(/N=C/c4ccc(OC)c(CN5CCCC5)c4)c(C)nc3c2c1 | inconclusive: 14.1 µM [inhibitor, single point] | –
54 | COc1ccc(Nc2nc(-c3ccccc3)c3cc(Br)ccc3n2)cc1 | inconclusive: 4.47 µM [inhibitor, partial curve] | –
55 | Cc1ccc(N(C)S(=O)(=O)c2ccc(-c3cnc(C4CC4)o3)cc2)cc1 | inconclusive: 39.8 µM [inhibitor, single point] | –
56 | CC(Sc1ccc2c(c1)OCCO2)C(=O)Nc1ccc(N2CCOCC2)cc1 (centres undefined) | inactive | –
57 | COc1ccc(NS(=O)(=O)c2c(C)[nH]c(=O)[nH]c2=O)c(OC)c1 | inactive | –
58 | COc1ccc(C)cc1NC(=O)C(Sc1nnnn1C)c1ccccc1 (centres undefined) | inactive | –
59 | COc1ccc(N2CCN(C(=O)c3cn(C4CCCCC4)c(=O)c4c3c3ccccc3n4C)CC2)cc1 | inconclusive: 15.8 µM [inhibitor, partial curve] | –
60 | COC(=O)c1cccc(Nc2c(-c3ccc(O)cc3)nc3nc[nH]n23)c1 | inconclusive: 14.1 µM [inhibitor, partial curve] | –
61 | CCOC(=O)C1CCN(C(c2cc3ccc(C)c(C)c3[nH]c2=O)c2nnnn2C2CCCCC2)CC1 (centres undefined) | inconclusive: 25.1 µM [inhibitor, single point] | –
62 | Cc1cc(C(=O)N/N=C/c2cccc([N+](=O)[O-])c2O)n[nH]1 | active: 14.1 µM | –
63 | NC(=O)CSc1nc2ccccc2c(=O)n1Cc1ccco1 | inactive | –
64 | COc1cc(C2C(C#N)=C(C)NC3=C2C(=O)c2ccccc23)cc(OC)c1OC (centres undefined) | inconclusive: 28.2 µM [inhibitor, partial curve] | –
65 | COCCCNC(=O)CN1C(=O)COc2ccc(S(=O)(=O)N3CCOCC3)cc21 | inconclusive: 39.8 µM [inhibitor, single point] | –
66 | O=C(COC(=O)CCSc1ccccc1Cl)Nc1ccc(F)cc1F | inconclusive: 39.8 µM [inhibitor, partial curve] | –
67 | CCNc1ccc2noc3c2c1C(=O)c1ccccc1-3 | active: 7.94 µM | –
68 | Cc1ccccc1SCC(=O)Nc1ccc(N2CCOCC2)cc1 | inconclusive: 25.1 µM [inhibitor, partial curve] | –
69 | CC1CC2(CCCCC2)N2C(=O)C(=O)c3cccc1c32 (centres undefined) | inconclusive: 14.1 µM [inhibitor, partial curve] | –
